{"source": "paper PMC6919601", "about": "“Identification of Plasmodium dipeptidyl aminopeptidase allosteric inhibitors by high throughput screening” (PLoS ONE, 2019)", "note": "“And” between values parts separate entries of the source, which are not always exact repeats. Identical values can stand only once. The campaign covered roughly 110,000 compounds. About 230 (0.21%) showed an effect of 50% or more. This is one part of the list.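 Note: 30 min substrate incubation versus DMSO and 10 µM JCP410 controls.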"}
{"target": "DPAP1 (Plasmodium falciparum, UniProt Q8IIJ9)", "sequence (Q8IIJ9 whole entry, looked up)": "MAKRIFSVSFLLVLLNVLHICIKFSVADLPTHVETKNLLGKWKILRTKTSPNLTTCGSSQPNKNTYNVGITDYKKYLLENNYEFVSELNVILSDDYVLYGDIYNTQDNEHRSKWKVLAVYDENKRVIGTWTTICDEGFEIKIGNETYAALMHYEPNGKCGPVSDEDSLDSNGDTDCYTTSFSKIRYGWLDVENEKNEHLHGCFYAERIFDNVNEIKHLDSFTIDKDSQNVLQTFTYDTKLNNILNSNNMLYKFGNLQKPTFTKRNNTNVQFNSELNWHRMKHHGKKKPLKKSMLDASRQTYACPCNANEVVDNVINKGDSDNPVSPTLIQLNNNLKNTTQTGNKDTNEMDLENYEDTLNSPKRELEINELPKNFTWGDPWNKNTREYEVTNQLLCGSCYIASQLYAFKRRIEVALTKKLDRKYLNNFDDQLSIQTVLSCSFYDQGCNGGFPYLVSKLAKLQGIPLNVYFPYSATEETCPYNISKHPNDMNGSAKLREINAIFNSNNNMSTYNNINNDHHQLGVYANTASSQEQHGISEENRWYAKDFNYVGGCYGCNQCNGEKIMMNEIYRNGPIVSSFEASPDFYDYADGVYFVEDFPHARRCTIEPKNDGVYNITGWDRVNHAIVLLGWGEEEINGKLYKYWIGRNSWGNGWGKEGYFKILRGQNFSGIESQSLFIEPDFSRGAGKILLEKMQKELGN", "assay": "primary screen, percent inhibition; read by cleavage of a fluorogenic dipeptide substrate; higher = more effect of the substance", "parameters": "species or system P. falciparum D10 trophozoite lysates; single well"}
{"compound": "O=C1C(=Cc2cn(CC(=O)N3CCOCC3)c3ccccc23)C(=O)c2ccccc21", "% Inhibition @ 10 uM": "3.72%"}
{"compound": "CCCC(=O)Nc1nc2ccc(F)cc2s1", "% Inhibition @ 10 uM": "4.19%"}
{"compound": "O=C(Nc1cccc(Cl)c1)c1cc2nc(C(F)F)cc(C(F)F)n2n1", "% Inhibition @ 10 uM": "2.08%"}
{"compound": "COc1cccc(CN2CCN(Cc3ccccc3C)CC2)c1OC", "% Inhibition @ 10 uM": "2.39%"}
{"compound": "CCOc1cc2c(cc1OCC)C(c1cccc(OC)c1)NCC2", "note": "(centres unmarked)", "% Inhibition @ 10 uM": "2.49%"}
{"compound": "CSCCC(C(=O)O)N1C(=O)c2c(Cl)c(Cl)c(Cl)c(Cl)c2C1=O", "note": "(centres unmarked)", "% Inhibition @ 10 uM": "19.4%"}
{"compound": "Cc1nc(O)nc(O)c1S(=O)(=O)N1CCN(CCOc2ccc(Cl)cc2)CC1", "% Inhibition @ 10 uM": "-1.38%"}
{"compound": "COc1cc2c(cc1/C=C1/NC(=O)N(CC(=O)Nc3cccc(C)c3)C1=O)OCO2", "% Inhibition @ 10 uM": "-16.5%"}
{"compound": "CCN(CC)CCCNC(=O)c1cnn2c(C)c(Cc3c(F)cccc3Cl)c(C)nc12", "% Inhibition @ 10 uM": "-2.26%"}
{"compound": "COCC(=O)N1CCN(c2nc3ccccc3o2)CC1", "% Inhibition @ 10 uM": "-4.49%"}
{"compound": "O=c1oc(/C=C/c2ccco2)nc2sc3c(c12)CCC3", "% Inhibition @ 10 uM": "-4.93%"}
{"compound": "O=[N+]([O-])c1ccc(CN2CCCCCC2)o1", "% Inhibition @ 10 uM": "-4.35%"}
{"compound": "N#CC1=C(N)OC2=C(C(=O)CCC2)C1c1ccc(Cl)c(Cl)c1", "note": "(centres unmarked)", "% Inhibition @ 10 uM": "-1.86%"}
{"compound": "Cc1ccc(C)c(NC(=O)Cn2cnc3c(=O)n(C)c(=O)n(C)c32)c1", "% Inhibition @ 10 uM": "-4.12% and 3.53%"}
{"compound": "CCOc1ccc(NC2=NC(=O)/C(=C/c3ccc(N4CCCC4)o3)S2)cc1", "% Inhibition @ 10 uM": "18.7%"}
{"compound": "CC(=O)c1nn(-c2ccc(Cl)cc2)nc1Nc1cnc2ccccc2c1", "% Inhibition @ 10 uM": "-5.33%"}
{"compound": "Cc1ccc(-c2nc(C(=O)Nc3ccc(Cl)cn3)c3n2CCCCC3)cc1", "% Inhibition @ 10 uM": "1.14%"}
{"compound": "COc1ccc(CN(CCCN(C)C)CCCN(C)C)cc1OC", "% Inhibition @ 10 uM": "4.8%"}
{"compound": "Cc1ccc(CN2C(=O)N/C(=C\\c3cccn3-c3cccc(C(=O)O)c3)C2=O)cc1", "% Inhibition @ 10 uM": "7.68%"}
{"compound": "CS(=O)(=O)N(CC(=O)Nc1ccccc1C(=O)O)c1ccc(F)cc1", "% Inhibition @ 10 uM": "2.78%"}
{"compound": "COc1ccc(NC(=O)Nc2ccc(Cc3ccncc3)cc2)cc1", "% Inhibition @ 10 uM": "4.22%"}
{"compound": "Cc1ccc(CNC(=O)C(Cc2ccccc2)N2Cc3ccccc3C2=O)cc1", "note": "(centres unmarked)", "% Inhibition @ 10 uM": "2.59%"}
{"compound": "COc1ccc(C2CC(c3cc(OC)ccc3OC)n3nnnc3N2)cc1", "note": "(centres unmarked)", "% Inhibition @ 10 uM": "0.0842%"}
{"compound": "Clc1ccc(/C=C/c2nnc3ccccc3n2)cc1", "% Inhibition @ 10 uM": "-3.44%"}
{"compound": "Cc1ccsc1CN1CCN(c2ncccn2)CC1", "% Inhibition @ 10 uM": "-0.828%"}
{"compound": "c1ccc(CCn2nnc3ccccc32)cc1", "% Inhibition @ 10 uM": "-2.98%"}
{"compound": "COc1ccc(OC)c(CN2CCN(Cc3cccc(Cl)c3)CC2)c1", "% Inhibition @ 10 uM": "-8.37%"}
{"compound": "COc1ccc(OCC(=O)Nc2ccc(NC(C)=O)cc2)cc1", "% Inhibition @ 10 uM": "2.48%"}
{"compound": "CCCOc1ccc(Oc2nc(NCC)nc(N(C)C)n2)nn1", "% Inhibition @ 10 uM": "-1.81%"}
{"compound": "CCc1ccc(-n2c(C)nc3cc(C(=O)NCCCOC)ccc32)cc1", "% Inhibition @ 10 uM": "-1.99%"}
{"compound": "FC(F)(F)c1ccc(-c2noc(CCc3ccccc3)n2)cc1", "% Inhibition @ 10 uM": "-0.671%"}
{"compound": "CCN(c1ccccc1C(=O)O)S(=O)(=O)/C=C/c1ccccc1", "% Inhibition @ 10 uM": "-1.29%"}
{"compound": "CC(C)CN(CC(C)C)C(=O)/C(=C/c1cn(C)c2ccccc12)NC(=O)c1ccco1", "% Inhibition @ 10 uM": "-1.74%"}
{"compound": "CC1CCCN(c2ncnc3c2cnn3-c2ccccc2)C1", "note": "(centres unmarked)", "% Inhibition @ 10 uM": "5.84%"}
{"compound": "N#CC1=C(N)N=C(S)C(C(N)=O)C1c1ccccc1", "note": "(centres unmarked)", "% Inhibition @ 10 uM": "-2.16%"}
{"compound": "Nc1ccc(C(=O)Nc2ccc(C(=O)O)cc2)c(C(=O)O)c1", "% Inhibition @ 10 uM": "1.9%"}
{"compound": "CNc1nc(Sc2nc(C)cc(Cl)n2)nc(N2CCOCC2)n1", "% Inhibition @ 10 uM": "-4.73%"}
{"compound": "CCOC(=O)N1CCN(C(=O)CN(c2cccc(OC)c2)S(C)(=O)=O)CC1", "% Inhibition @ 10 uM": "0.0451%"}
{"compound": "CC(C)CC(=O)NCC(C)NC(=O)CC(C)C", "note": "(centres unmarked)", "% Inhibition @ 10 uM": "5.14%"}
{"compound": "c1ccc(-c2nn3c(Cn4nnc5ccccc54)nnc3s2)nc1", "% Inhibition @ 10 uM": "2.89%"}
{"compound": "COc1ccc(CN2CCN(c3ncnc4sc5c(c34)CC(C)CC5)CC2)cc1", "note": "(centres unmarked)", "% Inhibition @ 10 uM": "-2.65%"}
{"compound": "Cc1cccc2sc(NC(=O)C3CCC3)nc12", "% Inhibition @ 10 uM": "2.02%"}
{"compound": "CNC(=O)Cn1nc(C)n2cccc2c1=O", "% Inhibition @ 10 uM": "-5.78%"}
{"compound": "CC1=C(C(=O)NCCC2=CCCCC2)C2(CCC(C)CC2)OC1=O", "note": "(centres unmarked)", "% Inhibition @ 10 uM": "-3.7%"}
{"compound": "Cc1cccc(OCC(O)Cn2c(N3CCCC3)nc3c2c(=O)[nH]c(=O)n3C)c1", "note": "(centres unmarked)", "% Inhibition @ 10 uM": "3.93%"}
{"compound": "CC(C)c1ccc(C(=O)NC(C)c2ccc3c(c2)OCO3)cc1", "note": "(centres unmarked)", "% Inhibition @ 10 uM": "-1.36%"}
{"compound": "FC(F)(F)c1ccccc1C1NCCc2c1[nH]c1ccccc21", "note": "(centres unmarked)", "% Inhibition @ 10 uM": "-3.62%"}
{"compound": "COCCCNC(=O)/C(C#N)=C/c1cn(CC(=O)N2CCOCC2)c2ccccc12", "% Inhibition @ 10 uM": "-2.5%"}
{"compound": "N#CC1CCN(C(=O)Cn2ncc3c2-c2ccccc2OC3)CC1", "% Inhibition @ 10 uM": "-2.16%"}
{"compound": "Cc1cccc(OCC(O)Cn2c(N3CCNCC3)nc3c2c(=O)n(C)c(=O)n3C)c1", "note": "(centres unmarked)", "% Inhibition @ 10 uM": "0.627%"}
{"compound": "O=c1[nH]c(=O)n(Cc2ccc(Oc3ccccc3)cc2)cc1Br", "% Inhibition @ 10 uM": "1.11%"}
{"compound": "O=C(NCCn1cccc1)c1cc(F)c(F)cc1Cl", "% Inhibition @ 10 uM": "-6.42%"}
{"compound": "COc1ccc(/C(O)=C/C=N/c2ccc(Br)cc2)cc1OC", "% Inhibition @ 10 uM": "-0.413%"}
{"compound": "Oc1c(/C=N/Cc2ccncc2)sc2ccccc12", "% Inhibition @ 10 uM": "-0.467%"}
{"compound": "Cc1onc(-c2c(F)cccc2Cl)c1C(=O)Nc1ccccc1", "% Inhibition @ 10 uM": "-3.23%"}
{"compound": "CCn1c2ccccc2n2c(C(=O)OC)c(C)nc12", "% Inhibition @ 10 uM": "4.52%"}
{"compound": "O=S(=O)(c1ccc(-c2cc(C(F)(F)F)no2)s1)N1CCN(c2ccccn2)CC1", "% Inhibition @ 10 uM": "2.07%"}
{"compound": "CCOc1ccc(C2C3=C(O)CC(C)(C)CC3=Nc3nc(N)nc(O)c32)cc1", "note": "(centres unmarked)", "% Inhibition @ 10 uM": "-2.91%"}
{"compound": "CCOC(=O)/C(C#N)=C\\c1c(C)cc(C)c(COC)c1C", "% Inhibition @ 10 uM": "-6.25%"}
{"compound": "COc1ccc(C2C(C(=O)c3ccccc3)=C(O)C(=O)N2CCCN2CCOCC2)cc1OC", "note": "(centres unmarked)", "% Inhibition @ 10 uM": "-3.06%"}
{"compound": "CC1CN(C(=O)Nc2ccccc2)c2ccccc2-[n+]2ccsc21", "note": "(centres unmarked)", "% Inhibition @ 10 uM": "2.27%"}
{"compound": "COCC(C)NCc1ccc2c(c1)OCO2", "note": "(centres unmarked)", "% Inhibition @ 10 uM": "3.44%"}
{"compound": "Cc1ccc(CNC(=O)Cn2c(=O)n(Cc3ccccc3)c(=O)c3c4c(sc32)CCCC4)cc1", "% Inhibition @ 10 uM": "-0.58%"}
{"compound": "Cc1ccccc1S(=O)Cc1ccc(C(=O)NCc2cccc(Cl)c2)o1", "note": "(centres unmarked)", "% Inhibition @ 10 uM": "-3.02%"}
{"compound": "O=C(Nc1ccccc1C(=O)NCC1CCCO1)c1ccc(Cl)cc1Cl", "note": "(centres unmarked)", "% Inhibition @ 10 uM": "-1.26%"}
